This note sets out measurements from a collection of fitness landscapes (doi:10.1126/science.1257360).

The other results are listed elsewhere or left out. Some results are limits rather than exact numbers.

To fix the notation:
B1: PhoQ; a variant is named by its letters at X, in order, P23837 (parent)
chain: MKKLLRLFFPLSLRVRFLLATAAVVLVLSLAYGMVALIGYSVSFDKTTFRLLRGESNLFYTLAKWENNKLHVELPENIDKQSPTMTLIYDENGQLLWAQRDVPWLMKMIQPDWLKSNGFHEIEADVNDTSLLLSGDHSIQQQLQEVREDDDDAEMTHSVAVNVYPATSRMPKLTIVVVDTIPVELKSSYMVWSWFIYVLSANLLLVIPLLWVAAWWSLRPIEALAKEVRELEEHNRELLNPATTRELTSLVRNLNRLLKSERERYDKYRTTLTDLTHSLKTPLXXLQXXLRSLRSEKMSVSDAEPVMLEQISRISQQIGYYLHRASMRGGTLLSRELHPVAPLLDNLTSALNKVYQRKGVNISLDISPEISFVGEQNDFVEVMGNVLDNACKYCLEFVEISARQTDEHLYIVVEDDGPGIPLSKREVIFDRGQRVDTLRPGQGVGLAVAREITEQYEGKIVAGESMLGGARMEVIFGRQHSAPKDE

Variants of B1 are the subject of this assay. Description: enrichment ratio after two sorts for PhoP signalling (ratio (wild type AVST 3.29)); higher = more functional. Particulars: with PhoP (E. coli).
Take DNRN: the enrichment ratio is at most 0.25.
Next, QYVF: at most 0.25; MEWW: at most 0.25; WNDH: at most 0.25.
Consider IEAI, for which the enrichment ratio was at most 0.25.
With TAVH the figure was at most 0.25; with HWES, at most 0.25; with MHDA, at most 0.25.
On to RQHK, for which the enrichment ratio was at most 0.25.
Take NVLY: the enrichment ratio was at most 0.25.
Regarding QDPA, the enrichment ratio was at most 0.25.
With MHCA the figure was at most 0.25; with FANM, at most 0.25; with IVYS, at most 0.25.
As to WGPN, the enrichment ratio is at most 0.25.
Turning to FSRL, the enrichment ratio is at most 0.25.
With MEPQ, the enrichment ratio is at most 0.25.
Next, VPVM: at most 0.25.
On to LQYV, for which the enrichment ratio was at most 0.25.
With VMMD the figure was at most 0.25; with DQQA, at most 0.25; with MPTE, at most 0.25.
With FRFM, the enrichment ratio is at most 0.25.
Turning to INAW, the enrichment ratio is at most 0.25.
With NEDV the figure was at most 0.25; with SEDH, at most 0.25; with YNCR, at most 0.25.
Next, LLKF: at most 0.25.
As for WEEP, the enrichment ratio is at most 0.25.
With NRDA the figure was at most 0.25; with GKTC, at most 0.25.
Next, MNQA: at most 0.25; NERG: at most 0.25.
As for TSGW, the enrichment ratio was at most 0.25.
With GFES the figure was at most 0.25; with AMIR, 0.403.
Regarding ARIK, the enrichment ratio was at most 0.25.
Next, ASVQ: 4.67; RYQP: at most 0.25.
Consider DQTN, for which the enrichment ratio was at most 0.25.
For MLPW, the enrichment ratio was at most 0.25.
Next, RPNW: at most 0.25; LDGQ: at most 0.25; HEVF: at most 0.25.
On to KMGN, for which the enrichment ratio is at most 0.25.
Take LKDP: the enrichment ratio was at most 0.25.
KSWG: the enrichment ratio is at most 0.25.
Next, THCL: 8.89; HDQQ: at most 0.25; DDIQ: at most 0.25.
Consider EGFV, for which the enrichment ratio is at most 0.25.
Next, LIEY: at most 0.25; VCVH: at most 0.25; YHYE: at most 0.25.
With RQGT the figure was at most 0.25; with TIMC, 9; with DNPR, at most 0.25.
Regarding YTPM, the enrichment ratio is at most 0.25.
Turning to NDFL, the enrichment ratio was at most 0.25.
TIKR: the enrichment ratio is at most 0.25.
Next, AALF: 9.71; KNNY: at most 0.25.
Next, QHMP: at most 0.25; TIMN: 2.93.
Next, HFQF: at most 0.25; LGPQ: at most 0.25.
Regarding TFEF, the enrichment ratio was at most 0.25.
On to RDVT, for which the enrichment ratio was at most 0.25.
In the case of IAAG, the enrichment ratio is at most 0.25.
With EESW the figure was at most 0.25; with HKSI, at most 0.25; with SNKE, at most 0.25.
Next, MCTV: at most 0.25; QYEY: at most 0.25; ALHF: at most 0.25.
Turning to QSCT, the enrichment ratio was at most 0.25.
For CPFL, the enrichment ratio was at most 0.25.
For APPD, the enrichment ratio was at most 0.25.
As for HQDG, the enrichment ratio is at most 0.25.
As for YWVA, the enrichment ratio was at most 0.25.
With GFRE the figure was at most 0.25; with QLNY, at most 0.25; with NKKM, at most 0.25.
With SNAQ the figure was 8.15.
Next, YKDR: at most 0.25.
As to LLDS, the enrichment ratio is at most 0.25.
Take TRQV: the enrichment ratio is at most 0.25.
On to FKAD, for which the enrichment ratio is at most 0.25.
For the variant FSNH, the enrichment ratio was at most 0.25.
As to ILCS, the enrichment ratio was at most 0.25.
With RHTG the figure was at most 0.25; with YRCG, at most 0.25; with FHRV, at most 0.25.
Next, KKGW: at most 0.25.
Next, QAMM: at most 0.25.
Regarding YVPA, the enrichment ratio was at most 0.25.
With DFHV the figure was at most 0.25; with IVFH, at most 0.25.
As to FIIS, the enrichment ratio is at most 0.25.
Next, CCLI: at most 0.25; MNFV: 1.01.
As to RTPY, the enrichment ratio was at most 0.25.
In the case of NTSA, the enrichment ratio was at most 0.25.
With PHCQ the figure was at most 0.25; with SIGG, 6.86.
Next, HVPL: at most 0.25; FDFL: at most 0.25.
Consider REHE, for which the enrichment ratio was at most 0.25.
Next, SPWC: at most 0.25; GNTS: 6.21; IKAT: at most 0.25.
Take KTLW: the enrichment ratio was at most 0.25.
In the case of LPYY, the enrichment ratio was at most 0.25.
With AWTK, the enrichment ratio was 5.87.
With SMIW the figure was at most 0.25; with YCHI, at most 0.25.
With ALMS, the enrichment ratio is at most 0.25.
With NNWQ, the enrichment ratio was at most 0.25.
With VSGG the figure was at most 0.25; with MGDG, at most 0.25; with VWMV, at most 0.25.
With SMIQ the figure was at most 0.25; with SRHQ, at most 0.25; with VSYE, at most 0.25.
With AVAW the figure was 22.5.
Take NDDM: the enrichment ratio is at most 0.25.
For the variant TNKF, the enrichment ratio is at most 0.25.
As to YACD, the enrichment ratio was at most 0.25.
For MKKT, the enrichment ratio is at most 0.25.
With SNLQ the figure was 15.3; with KHLQ, at most 0.25; with KETK, at most 0.25.
KEHD: the enrichment ratio is at most 0.25.
Next, MEDT: at most 0.25.
For the variant EQPL, the enrichment ratio is at most 0.25.
YCST: the enrichment ratio amounted to 0.374.
With NLMC the figure was at most 0.25.
Next, IHNL: at most 0.25; GHSH: at most 0.25.
Next, NQPK: at most 0.25; GLGL: 0.346; MPTN: at most 0.25.
For INLA, the enrichment ratio is at most 0.25.
For the variant PCAC, the enrichment ratio was at most 0.25.
Next, HFGV: at most 0.25; YNSD: at most 0.25; WMAI: at most 0.25.
In the case of NGGA, the enrichment ratio is at most 0.25.
Next, SHKF: at most 0.25; RAVV: at most 0.25; RQMT: at most 0.25.
Consider VTMQ, for which the enrichment ratio was 2.91.
Next, EDGI: at most 0.25.
